# Measurements from the supplement of paper PMC8728848.
# Some of the results follow.
# B1: PX14343B-bfa-546-20-546 (Bacteroides fragilis) (protein)
# chain: CDLERYPLTDLSEETFWNSESNAELALTSLYRGSLTDGVEYNPSDWWSYHGMIMMEHLSDNAFDRRGENNPFFKISSGNLTADNAFIKRYWETSYKRIGYCNRFLVGIQNSSESEKKTRMIAEARFLRATQYFYLASYFKNVPLVENVLTGEEANNVTKTSQADILKWCVTEFTAAAADLPRFSAIPAGEAGRACKQAALAFLGRTCMLQKDWKSGAKAFHDIMELGDNAINANYQELFYPSTGTSNKENIFYIQYLENYLGTGLPQHALSAKDGGWSLVNPAADLYESYEFKDGTPFSYDDPRYDPSNLGKDRDPRLDYTIYYNGAIFMGTEYKMSPDYSAAKKEKLDYTSEASRTGFMMRKYFEESTPINDVQSANGLTPVIRYAEVLLGYLECLVEDNQTITQGILDETINAVRGRASVNMPPVTEVTPAKLREIVRHERRIELAMEGIRYWDIMRWGIAHEVLSQKIWGAPYPGSTQYATTTKEVDPTGNYRWYVGKRAFRNPTDYTWPIPQSEQNINPNLRD
# How the values were obtained:
# Experiment in all cases: glycan array binding signal (z-score within array); higher = stronger binding
# Conditions in all cases: glycan notation: IUPAC condensed, linker removed
# Neu5Ac(a2-3)GalNAc = biological target: Neu5Ac(a2-3)GalNAc
# In short: (§1)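 Glycan array data were curated from 3228 arrays in the Consortium for Functional Glycomics database and kept only where the protein sequence was available. Glycan names were converted to IUPAC-condensed notation, and columns mapping to the same glycan were averaged. The binding signal is a within-array Z-score, averaged across arrays of the same protein sequence at different concentrations or buffers and across linkers. Negative Z-scores can be read as non-binding.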
# [1] = biological target: Neu5Ac(a2-3)GalNAc(b1-4)GlcNAc
# In short: as §1
# [2] = biological target: Neu5Ac(a2-3)[GalNAc(b1-4)]Gal(b1-4)Glc
# In short: as §1
# [3] = biological target: Neu5Ac(a2-3)[GalNAc(b1-4)]Gal(b1-4)GlcNAc
# In short: as §1
# [4] = biological target: Neu5Ac(a2-3)[GalNAc(b1-4)]Gal(b1-4)GlcNAc(b1-3)GalNAc
# In short: as §1
# [5] = biological target: Neu5Ac(a2-3)[Neu5Ac(a2-6)]GalNAc
# In short: as §1
# Neu5Ac(a2-6)Gal = biological target: Neu5Ac(a2-6)Gal
# In short: as §1
# [6] = biological target: Neu5Ac(a2-6)Gal(b1-3)GlcNAc(b1-3)[Gal(b1-4)GlcNAc(b1-6)]Gal(b1-4)Glc
# In short: as §1
# Neu5Ac(a2-6)Gal(b1-4)Glc = biological target: Neu5Ac(a2-6)Gal(b1-4)Glc
# In short: as §1
# [7] = biological target: Neu5Ac(a2-6)Gal(b1-4)GlcNAc
# In short: as §1
# [8] = biological target: Neu5Ac(a2-6)Gal(b1-4)GlcNAc(b1-2)Man
# In short: as §1
# [9] = biological target: Neu5Ac(a2-6)Gal(b1-4)GlcNAc(b1-2)Man(a1-3)Man(b1-4)GlcNAc(b1-4)GlcNAc
# In short: as §1
# [10] = biological target: Neu5Ac(a2-6)Gal(b1-4)GlcNAc(b1-2)Man(a1-3)[Gal(b1-4)GlcNAc(b1-2)Man(a1-6)]Man(b1-4)GlcNAc(b1-4)GlcNAc
# In short: as §1
# [11] = biological target: Neu5Ac(a2-6)Gal(b1-4)GlcNAc(b1-2)Man(a1-3)[GlcNAc(b1-2)Man(a1-6)]Man(b1-4)GlcNAc(b1-4)GlcNAc
# In short: as §1
# [12] = biological target: Neu5Ac(a2-6)Gal(b1-4)GlcNAc(b1-2)Man(a1-3)[GlcNAc(b1-4)][Neu5Ac(a2-6)Gal(b1-4)GlcNAc(b1-2)Man(a1-6)]Man(b1-4)GlcNAc(b1-4)GlcNAc
# In short: as §1
# [13] = biological target: Neu5Ac(a2-6)Gal(b1-4)GlcNAc(b1-2)Man(a1-3)[Man(a1-6)]Man(b1-4)GlcNAc(b1-4)GlcNAc
# In short: as §1
# [14] = biological target: Neu5Ac(a2-6)Gal(b1-4)GlcNAc(b1-2)Man(a1-3)[Neu5Ac(a2-3)Gal(b1-4)GlcNAc(b1-2)Man(a1-6)]Man(b1-4)GlcNAc(b1-4)GlcNAc
# In short: as §1
# [15] = biological target: Neu5Ac(a2-6)Gal(b1-4)GlcNAc(b1-2)Man(a1-3)[Neu5Ac(a2-6)Gal(b1-4)GlcNAc(b1-2)Man(a1-6)]Man(b1-4)GlcNAc(b1-4)GlcNAc
# In short: as §1
# [16] = biological target: Neu5Ac(a2-6)Gal(b1-4)GlcNAc(b1-2)Man(a1-3)[Neu5Ac(a2-6)Gal(b1-4)GlcNAc(b1-2)Man(a1-6)]Man(b1-4)GlcNAc(b1-4)[Fuc(a1-6)]GlcNAc
# In short: as §1
# [17] = biological target: Neu5Ac(a2-6)Gal(b1-4)GlcNAc(b1-2)Man(a1-6)Man(b1-4)GlcNAc(b1-4)GlcNAc
# In short: as §1
# [18] = biological target: Neu5Ac(a2-6)Gal(b1-4)GlcNAc(b1-2)Man(a1-6)[Gal(b1-4)GlcNAc(b1-2)Man(a1-3)]Man(b1-4)GlcNAc(b1-4)GlcNAc
# In short: as §1
# [19] = biological target: Neu5Ac(a2-6)Gal(b1-4)GlcNAc(b1-2)Man(a1-6)[GlcNAc(b1-2)Man(a1-3)]Man(b1-4)GlcNAc(b1-4)GlcNAc
# In short: as §1
# [20] = biological target: Neu5Ac(a2-6)Gal(b1-4)GlcNAc(b1-2)Man(a1-6)[Man(a1-3)]Man(b1-4)GlcNAc(b1-4)GlcNAc
# In short: as §1
# [21] = biological target: Neu5Ac(a2-6)Gal(b1-4)GlcNAc(b1-2)[Neu5Ac(a2-6)Gal(b1-4)GlcNAc(b1-4)]Man(a1-3)[GlcNAc(b1-4)][Neu5Ac(a2-6)Gal(b1-4)GlcNAc(b1-2)[Neu5Ac(a2-6)Gal(b1-4)GlcNAc(b1-6)]Man(a1-6)]Man(b1-4)GlcNAc(b1-4)GlcNAc
# In short: as §1
# [22] = biological target: Neu5Ac(a2-6)Gal(b1-4)GlcNAc(b1-2)[Neu5Ac(a2-6)Gal(b1-4)GlcNAc(b1-4)]Man(a1-3)[GlcNAc(b1-4)][Neu5Ac(a2-6)Gal(b1-4)GlcNAc(b1-4)Man(a1-6)]Man(b1-4)GlcNAc(b1-4)GlcNAc
# In short: as §1
# [23] = biological target: Neu5Ac(a2-6)Gal(b1-4)GlcNAc(b1-2)[Neu5Ac(a2-6)Gal(b1-4)GlcNAc(b1-6)]Man(a1-6)[Neu5Ac(a2-6)Gal(b1-4)GlcNAc(b1-2)Man(a1-3)][GlcNAc(b1-4)]Man(b1-4)GlcNAc(b1-4)GlcNAc
# In short: as §1
# [24] = biological target: Neu5Ac(a2-6)Gal(b1-4)GlcNAc(b1-3)Gal(b1-3)GlcNAc
# In short: as §1
# [25] = biological target: Neu5Ac(a2-6)Gal(b1-4)GlcNAc(b1-3)Gal(b1-4)GlcNAc
# In short: as §1
# [26] = biological target: Neu5Ac(a2-6)Gal(b1-4)GlcNAc(b1-3)Gal(b1-4)GlcNAc(b1-2)Man(a1-3)[Neu5Ac(a2-6)Gal(b1-4)GlcNAc(b1-3)Gal(b1-4)GlcNAc(b1-2)Man(a1-6)]GalNAc
# In short: as §1
# [27] = biological target: Neu5Ac(a2-6)Gal(b1-4)GlcNAc(b1-3)Gal(b1-4)GlcNAc(b1-3)Gal(b1-4)GlcNAc
# In short: as §1
# [28] = biological target: Neu5Ac(a2-6)Gal(b1-4)GlcNAc(b1-3)Gal(b1-4)GlcNAc(b1-3)Gal(b1-4)GlcNAc(b1-2)Man(a1-3)[Neu5Ac(a2-6)Gal(b1-4)GlcNAc(b1-3)Gal(b1-4)GlcNAc(b1-3)Gal(b1-4)GlcNAc(b1-2)Man(a1-6)]GalNAc
# In short: as §1
# [29] = biological target: Neu5Ac(a2-6)Gal(b1-4)GlcNAc(b1-3)Gal(b1-4)GlcNAc(b1-3)GalNAc
# In short: as §1
# [30] = biological target: Neu5Ac(a2-6)Gal(b1-4)GlcNAc(b1-3)Gal(b1-4)GlcNAc(b1-3)[Neu5Ac(a2-6)Gal(b1-4)GlcNAc(b1-3)Gal(b1-4)GlcNAc(b1-6)]GalNAc
# In short: as §1
# [31] = biological target: Neu5Ac(a2-6)Gal(b1-4)GlcNAc(b1-3)Gal(b1-4)GlcNAc(b1-6)[Gal(b1-3)]GalNAc
# In short: as §1
# [32] = biological target: Neu5Ac(a2-6)Gal(b1-4)GlcNAc(b1-3)Gal(b1-4)[Fuc(a1-3)]GlcNAc(b1-3)Gal(b1-4)[Fuc(a1-3)]GlcNAc
# In short: as §1
# [33] = biological target: Neu5Ac(a2-6)Gal(b1-4)GlcNAc(b1-3)GalNAc
# In short: as §1
# [34] = biological target: Neu5Ac(a2-6)Gal(b1-4)GlcNAc(b1-3)[Neu5Ac(a2-6)Gal(b1-4)GlcNAc(b1-6)]GalNAc
# In short: as §1
# [35] = biological target: Neu5Ac(a2-6)Gal(b1-4)GlcNAc(b1-6)GalNAc
# In short: as §1
# [36] = biological target: Neu5Ac(a2-6)Gal(b1-4)GlcNAc(b1-6)[Gal(b1-3)GlcNAc(b1-3)]Gal(b1-4)Glc
# In short: as §1
# [37] = biological target: Neu5Ac(a2-6)Gal(b1-4)GlcNAc(b1-6)[Gal(b1-3)]GalNAc
# In short: as §1
# [38] = biological target: Neu5Ac(a2-6)Gal(b1-4)GlcNAc6S
# In short: as §1
# Neu5Ac(a2-6)GalNAc = biological target: Neu5Ac(a2-6)GalNAc
# In short: as §1
# [39] = biological target: Neu5Ac(a2-6)GalNAc(b1-4)GlcNAc
# In short: as §1
# [40] = biological target: Neu5Ac(a2-6)GalNAc(b1-4)GlcNAc6S
# In short: as §1
# [41] = biological target: Neu5Ac(a2-6)GlcNAc(b1-4)GlcNAc
# In short: as §1
binder,measurement,setting,value
B1,glycan array binding signal (z-score),Neu5Ac(a2-3)GalNAc,-0.126
same,glycan array binding signal (z-score),[1],-0.127
same,glycan array binding signal (z-score),[2],-0.132
same,glycan array binding signal (z-score),[3],-0.12
same,glycan array binding signal (z-score),[4],-0.114
same,glycan array binding signal (z-score),[5],-0.12
same,glycan array binding signal (z-score),Neu5Ac(a2-6)Gal,-0.126
same,glycan array binding signal (z-score),[6],-0.116
same,glycan array binding signal (z-score),Neu5Ac(a2-6)Gal(b1-4)Glc,-0.122
same,glycan array binding signal (z-score),[7],-0.124
same,glycan array binding signal (z-score),[8],-0.112
same,glycan array binding signal (z-score),[9],-0.095
same,glycan array binding signal (z-score),[10],-0.123
same,glycan array binding signal (z-score),[11],-0.125
same,glycan array binding signal (z-score),[12],-0.117
same,glycan array binding signal (z-score),[13],-0.13
same,glycan array binding signal (z-score),[14],-0.127
same,glycan array binding signal (z-score),[15],-0.125
same,glycan array binding signal (z-score),[16],-0.116
same,glycan array binding signal (z-score),[17],-0.119
same,glycan array binding signal (z-score),[18],-0.096
same,glycan array binding signal (z-score),[19],-0.134
same,glycan array binding signal (z-score),[20],-0.125
same,glycan array binding signal (z-score),[21],-0.12
same,glycan array binding signal (z-score),[22],-0.137
same,glycan array binding signal (z-score),[23],-0.13
same,glycan array binding signal (z-score),[24],-0.114
same,glycan array binding signal (z-score),[25],-0.114
same,glycan array binding signal (z-score),[26],-0.127
same,glycan array binding signal (z-score),[27],-0.126
same,glycan array binding signal (z-score),[28],-0.114
same,glycan array binding signal (z-score),[29],-0.124
same,glycan array binding signal (z-score),[30],-0.113
same,glycan array binding signal (z-score),[31],-0.112
same,glycan array binding signal (z-score),[32],-0.108
same,glycan array binding signal (z-score),[33],-0.107
same,glycan array binding signal (z-score),[34],-0.129
same,glycan array binding signal (z-score),[35],-0.123
same,glycan array binding signal (z-score),[36],-0.126
same,glycan array binding signal (z-score),[37],-0.126
same,glycan array binding signal (z-score),[38],-0.125
same,glycan array binding signal (z-score),Neu5Ac(a2-6)GalNAc,-0.133
same,glycan array binding signal (z-score),[39],-0.118
same,glycan array binding signal (z-score),[40],-0.082
same,glycan array binding signal (z-score),[41],-0.117
